This data set concerns the molecule itself. As to the kind of experiment: crystal structure.

B1: α-actinin-2 Δ1-18, E310A/K311A (crystallisation construct, lysine methylated) (natural protein)
chain: not shown
modifications: lysine residues reductively methylated
B1: the binding result is on record as “binds”.

The record behind these values is article PMC4259493 (Cell, 2014).
